The full ranking holds about 110,000 compounds; the median of “z-score” is about -0.1, and the highest 2% start at about 2. The list shows a part of the results. Calls of active or inactive are those of the source.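 The calls were made as follows: active = z-score in the third read window above 3 or below -3; inactive = the rest.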
biological target: Metabotropic glutamate receptor 8 (Rattus norvegicus) (UniProt P70579); test: mGluR8 Gi/Go-coupled signaling modulation – cell-based, rat, thallium flux, HTS, primary screen (AID 488969); settings: HEK293 rat mGluR8, GIRK (G protein-gated inwardly rectifying potassium channel) thallium flux, FluoZin2; at 10 µM; stronger effect = higher value; submaximal glutamate (EC20) added with thallium
UniProt P70579, sequence (P70579 whole entry, looked up): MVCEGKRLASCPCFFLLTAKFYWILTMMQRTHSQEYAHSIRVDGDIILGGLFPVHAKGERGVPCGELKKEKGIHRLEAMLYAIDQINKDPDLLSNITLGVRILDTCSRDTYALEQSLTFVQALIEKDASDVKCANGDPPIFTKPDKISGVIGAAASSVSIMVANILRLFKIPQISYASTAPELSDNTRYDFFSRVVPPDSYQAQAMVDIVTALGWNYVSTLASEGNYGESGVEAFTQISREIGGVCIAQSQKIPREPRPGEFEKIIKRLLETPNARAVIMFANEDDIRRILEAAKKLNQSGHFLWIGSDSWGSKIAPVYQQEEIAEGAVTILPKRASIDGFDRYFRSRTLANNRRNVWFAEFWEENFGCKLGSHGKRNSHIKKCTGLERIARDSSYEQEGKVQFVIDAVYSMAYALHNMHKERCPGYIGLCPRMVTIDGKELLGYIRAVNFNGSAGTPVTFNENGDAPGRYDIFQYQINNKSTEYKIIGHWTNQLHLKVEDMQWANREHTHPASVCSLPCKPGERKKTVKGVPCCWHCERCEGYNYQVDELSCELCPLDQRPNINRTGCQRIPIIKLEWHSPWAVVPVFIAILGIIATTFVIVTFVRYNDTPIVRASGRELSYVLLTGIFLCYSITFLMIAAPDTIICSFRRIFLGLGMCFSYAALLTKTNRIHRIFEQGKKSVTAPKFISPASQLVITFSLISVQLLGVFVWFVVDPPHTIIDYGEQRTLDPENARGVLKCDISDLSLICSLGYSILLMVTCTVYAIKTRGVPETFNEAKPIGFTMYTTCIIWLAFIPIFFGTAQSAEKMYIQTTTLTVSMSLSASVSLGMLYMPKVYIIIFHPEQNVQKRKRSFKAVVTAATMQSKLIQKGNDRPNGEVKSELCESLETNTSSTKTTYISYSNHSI

| SMILES | z-score |
| --- | --- |
| CN1CCN(C(=S)c2ccc([N+](=O)[O-])cc2)CC1 | 0.0346 |
| COc1ccc(NC(=O)CSc2nnc(CNC(=O)c3ccco3)o2)c(OC)c1 | 0.213 |
| COc1cc(C)nc2nc(SCc3ccccc3)nn12 | 0.185 |
| CCS(=O)(=O)N1Cc2ccccc2CC1C(=O)NC(C)C12CC3CC(CC(C3)C1)C2 (stereo unspecified) | -0.238 |
| CCn1c(-c2ccco2)nc2ccccc21 | -0.224 |
| COC(=O)c1ccc(C(=O)OC)c(NC(=O)CSCc2ccccc2Br)c1 | 0.157 |
| CCOCCOC(=O)C(C)Oc1ccc(Oc2ncc(Cl)cc2Cl)cc1 (stereo unspecified) | -0.465 |
| CN1C(=O)N(C)C(NC(=O)Nc2ccccc2)C1NC(=O)Nc1ccccc1 (stereo unspecified) | 0.955 |
| COc1ccccc1OCC(O)Cn1c(=N)n(CCN2CCCCC2)c2ccccc21 (stereo unspecified) | -0.0021 |
| O=C(c1cc2ccccc2cc1OCC(O)CN1CCCCC1)N1CCCCC1 (stereo unspecified) | -0.457 |
| O=C(c1ccccc1)c1cccc(NC(=O)C2CC2)c1 | -0.259 |
| COc1ccc(Cc2nc(-c3ccccc3)no2)cc1 | 0.83 |
| Cc1cc(C(=O)N2CCOCC2)n(-c2ccccc2)n1 | 0.0667 |
| CC(=O)NCCc1nc2ccccc2n1Cc1ccccc1 | -0.0359 |
| COc1ccc2cc(C3(C)NC(=O)N(CC(=O)NCCC4=CCCCC4)C3=O)ccc2c1 (stereo unspecified) | -0.227 |
| Oc1ccccc1/C=N/Nc1cc(N2CCCC2)nc(N2CCCC2)n1 | 0.0189 |
| C/C(=N\NC(=O)CC1N=C(Cc2ccccc2)NNC1=O)c1ccc(Cl)cc1Cl (stereo unspecified) | 0.303 |
| O=C1CC(c2ccc(F)cc2)Cc2nc(NCC3CCCO3)ncc21 (stereo unspecified) | -1.01 |
| COc1ccc(S(=O)(=O)NCCC(=O)NC2CCCCCCC2)cc1 | active: 3.82 |
| COC(=O)c1ccc(-c2nc(-c3cccs3)no2)cc1 | 0.555 |
| Cc1cc(N/C=C/C(=O)c2cccc3ccccc23)no1 | -0.0252 |
| COC(=O)CSc1nc2nc(C)cc(C)n2n1 | -0.251 |
| COC(=O)CSc1nnc(CCc2nc3ccccc3[nH]2)n1C | -0.318 |

| SMILES | z-score |
| --- | --- |
| CCOc1ccc(N2C(=O)CCC2=O)cc1 | -0.0642 |
| CCCN(Cc1cc2ccc(C)cc2[nH]c1=O)C(=O)c1ccccn1 | -0.608 |
| CS(=O)(=O)Nc1ccc(C(=O)N2CCCC2)cc1 | -0.0758 |
| Cc1ccc(N(C)C(=O)N2CCN(S(=O)(=O)c3ccc(C)cc3)CC2)cc1 | -0.924 |
| C=CCNC(=S)Nc1ccc2nc(C)c(C)nc2c1 | 0.0978 |
| Cc1cc(=O)oc(C)c1C(=O)N1CCN(C(c2ccccc2)c2ccccc2)CC1 | 0.596 |
| O=S1(=O)CCC(NCC2CCCO2)C1 (stereo unspecified) | -0.277 |
| Cc1nn(-c2ccccc2)c2c1C(c1cccs1)C(C#N)=C(N)O2 (stereo unspecified) | -0.477 |
| O=[N+]([O-])c1ccc(N2CCCCC2)cc1N1CCOCC1 | -0.191 |
| O=C(NC(=S)NC1CCSC1=O)c1ccccc1 (stereo unspecified) | -0.149 |
| O=C(CN1C(=O)c2ccccc2S1(=O)=O)N1CCN(Cc2ccc3c(c2)OCO3)CC1 | -0.0376 |
| COc1ccc(C2C(C#N)=C(N)N(c3cccnc3)C3=C2C(=O)CCC3)cc1Cn1cc([N+](=O)[O-])cn1 (stereo unspecified) | -0.0646 |
| CCc1c(C)sc(NC(=O)c2ccco2)c1C(=O)N1CCCCC1 | -0.182 |
| CCc1nnc(NC(=O)c2cccc(S(=O)(=O)N3CC(c4ccccc4)CC3=O)c2)s1 (stereo unspecified) | -0.73 |
| CCCCCOc1ccccc1C(=O)NCC(=O)O | -1.66 |
| Fc1ccc(Nc2nc(-c3ccncc3)nc3ccccc23)cc1F | -0.000763 |
| CCCCCCCCC(=O)NC(NC(=S)N1CCOCC1)C(Cl)(Cl)Cl (stereo unspecified) | 0.723 |
| Cc1cccc(NC(=O)COc2ccccc2)c1 | 0.29 |
| CCOC(=O)c1[nH]c2ccc(OC)cc2c1NC(=O)C(C)N1CCSCC1 (stereo unspecified) | -0.859 |
| CN1CCN(c2ccccc2NC(=O)c2ccc(OCc3ccccc3)cc2)CC1 | -0.384 |
| CCOC(=O)C(NC(=O)c1ccccc1Cl)(Nc1ccc(C)c(C)c1)C(F)(F)F (stereo unspecified) | -1.8 |
| O=C(N/N=C/c1cccn1-c1ccc([N+](=O)[O-])cc1)C(O)c1ccccc1 (stereo unspecified) | 0.181 |
| COc1ccc(N2CCN(C(=O)COc3ccccc3)CC2)cc1 | 0.752 |

| SMILES | z-score |
| --- | --- |
| CCCn1c(Nc2ccccc2)nc2ccccc21 | -0.0673 |
| Cc1cc(NCCCn2ccnc2)n2nc(C)c(-c3ccc(Cl)cc3)c2n1 | 0.932 |
| COCC(C)NC(=O)c1cc(-c2ccc(O)cc2)on1 (stereo unspecified) | 0.279 |
| O=Cc1ccc(N2CCCCCC2)cc1 | -0.151 |
| Cc1ccc(-n2c(=O)[nH]c3c(C(N)=O)nc(CC(C)C)nc32)cc1 | -0.0991 |
| CC(C)OCCCNC(=O)c1cc(Sc2ccc(F)cc2)nc2ccccc12 | 1.28 |
| CCOC(=O)N1CCN(C(=O)CSc2nnc(C3COc4ccccc4O3)o2)CC1 (stereo unspecified) | 0.978 |
| Cc1ccc(-c2cc(=O)[nH]c3ccccc23)cc1 | -1 |
| O=C(NC12CC3CC(CC(C3)C1)C2)c1ccc(S(=O)(=O)N2CCOCC2)cc1 | 0.117 |
| N=c1n(CC(=O)c2ccc([N+](=O)[O-])cc2)c2ccccc2n1Cc1ccccc1 | 0.833 |
| CC(=O)Cc1nsc(NC(=O)c2cc(-c3ccccc3Cl)oc2C)n1 | 0.0117 |
| O=C(Nc1cc(C(F)(F)F)ccc1-n1cncn1)c1ccc(Br)cc1 | 0.494 |
| CCn1c(=N)n(CC(O)c2ccccc2)c2ccccc21 (stereo unspecified) | 1.55 |
| Cc1cc(S(=O)(=O)N2CCCC2)ccc1OCC(=O)N1CCOCC1 | 0.0243 |
| COc1ccc(-c2csc(/C(C#N)=C(\O)CSc3nccn3C)n2)cc1OC | 0.0139 |
| CCn1c(/N=C/c2ccccc2NS(=O)(=O)c2ccc(C)cc2)nc2ccccc21 | 0.0733 |
| N#C[C@@H]1[C@@H]2C(=O)N(c3ccc4c(c3)OCCO4)C(=O)[C@@H]2C2c3ccccc3C=CN21 (stereo partly specified) | -1.07 |
| O=C(COC(=O)c1ccc2c(=O)n3c(nc2c1)CCC3)Nc1ccccc1F | -0.441 |
| O=C1c2ccccc2NC(c2ccccn2)N1c1ccccc1F (stereo unspecified) | -0.415 |
| O=C(NC(Cc1c[nH]c2ccccc12)C(=O)Nc1ccc(F)cc1)c1cccs1 (stereo unspecified) | -0.565 |
| Fc1cccc(NC(=S)Nc2ccc(Br)cc2)c1 | 0.843 |
| COc1cc(NS(=O)(=O)c2ccc(NC(C)=O)cc2)cc(OC)c1 | -0.348 |
| COc1cccc(-c2nnn(CC(=O)Nc3cc(OC)c(NC(=O)c4ccco4)cc3OC)n2)c1 | -0.347 |

| SMILES | z-score |
| --- | --- |
| CCOc1ccc(Cl)cc1/C=N/O | -0.395 |
| O=c1[nH]c(CSc2nnc(-c3ccccc3)n2C2CCCCC2)nc2ccccc12 | -1.12 |
| CCC1CCC2(CC1)NC(=O)N(CC(=O)c1c(C)[nH]c3ccccc13)C2=O (stereo unspecified) | 0.351 |
| CCC(=O)N1c2ccccc2-c2nnc(SC)nc2OC1c1ccc(OC)c(OC)c1 (stereo unspecified) | -0.654 |
| N#CC1=C(c2ccccc2)/C(=C/c2ccccc2)OC1=O | 1 |
| CC(=O)N1CCc2cc(S(=O)(=O)NCCC(=O)NC3CCCc4ccccc43)ccc21 (stereo unspecified) | -1.17 |
| Cn1c(=O)n(C)c2cc(C(=O)Nc3ccc4c(c3)OCO4)ccc21 | -0.0163 |
| Cc1ccc(CN2C(=O)N/C(=C/c3cc(C)n(-c4ccccn4)c3C)C2=O)cc1 | -0.247 |
| Cc1ccc(C(=O)Nc2cc(C)c(OCC(=O)N3CCOCC3)c(C)c2)cc1 | -0.0178 |
| COc1cc(/C=N/Nc2nc(Nc3ccccc3)nc(-n3nc(C)cc3C)n2)cc(OC)c1OC | -0.633 |
| Cc1ccc(Nc2nc(=O)c3cccnc3s2)cc1 | 0.389 |
| CS(=O)(=O)c1ccc(C(=O)Nc2cc(S(C)(=O)=O)ccc2Cl)cc1 | -0.245 |
| C=CCn1c(SCC(=O)NC(=O)NCCC)nnc1C1CCCCC1 | 0.189 |
| Cc1csc(C(=O)O)c1-c1c(C)csc1C(=O)O | -1.45 |
| O=C(CNc1cc(S(=O)(=O)N2CCCC2)ccc1OCC(F)(F)F)Nc1ccc(SC(F)F)cc1 | -0.207 |
| CCC1(CC)NC(=S)N(Nc2ccccc2)C1=O | -0.845 |
| COc1cccc(-c2cc(C(F)(F)F)c3c(N)c(C#N)sc3n2)c1 | -0.0936 |
| CNC(=O)c1c(NC(=O)c2nc3ccccc3s2)sc2c1CCC2 | -0.521 |
| O=C(O)CCn1[nH]c(=O)c2ccccc2c1=O | -0.184 |
| Cc1cc(C)c(S(=O)(=O)N(C)CC(=O)N2CCCCC2)c(C)c1 | 0.255 |
| CC1(C(=O)c2ccccc2)C2c3c(ccc4ccccc34)OC(=O)C21C(=O)N1CCOCC1 (stereo unspecified) | 0.0222 |
| Cc1cc(C)c(S(C)(=O)=O)c(Oc2ccccc2C)n1 | -0.0363 |
| COc1ccc(/C(=C/c2ccc(OC(F)F)c(OC)c2)C(=O)O)cc1OC | -0.452 |

| SMILES | z-score |
| --- | --- |
| O=c1oc(/C=C/c2ccco2)nc2sc3c(c12)CCC3 | 0.11 |
| CCOC(=O)CN1C(=O)CN(c2ccc(C)cc2)C1=O | -0.161 |
| Cc1cccc(NC(=O)CSc2ncnc3nc[nH]c23)c1 | -0.964 |
| COc1cc(CNc2ccc(N3CCCC3)cc2)ccc1OCc1ccccc1F | -0.289 |
| O=C(COc1ccccc1)NNC(=O)c1cc2ccccc2oc1=O | -0.00605 |
| COc1ccc(/C=N/NC(=O)c2ccc(Cn3cc([N+](=O)[O-])cn3)o2)cc1O | -0.561 |
| CCn1c(CN2CCN(C(=O)c3ccco3)CC2)nc2c1c(=O)n(C)c(=O)n2C | -0.377 |
| Cc1noc(C)c1C(=O)OCC(=O)NC1CC1 | -0.106 |
| CC(C)(C)N1NC(=O)Nc2ccccc2C1=O | 0.147 |
| Cc1cccc(-n2cc(-c3ccccc3)c3c(NN4CCOCC4)ncnc32)c1 | 0.0634 |
| O=C(Nc1ccccc1Br)C1CCC(=O)N1Cc1ccccc1Cl (stereo unspecified) | 0.19 |
| CCCCOc1cc(=O)[nH]c(=O)[nH]1 | 0.151 |
| CCOC(=O)c1nnn(-c2ccccc2C#N)c1C | 0.453 |
| O=C(Nc1ccc(F)cc1)c1cccnc1N1CCCCC1 | 0.149 |
| O=C(NCc1ccccc1Cl)C1CCCN(S(=O)(=O)c2cccc3nsnc23)C1 (stereo unspecified) | 1.16 |
| CCOC(=O)c1c(NC(=O)CN2C(=O)NC3(CCC(CC)CC3)C2=O)sc(C)c1-c1ccc(C)cc1 (stereo unspecified) | -0.196 |
| Cc1ccc(-c2csc3ncnc(SCC(=O)NCc4ccc5c(c4)OCO5)c23)cc1 | -0.257 |
| COc1ccc2nc(C)cc(SCC(=O)N/N=C/c3cccc4ccccc34)c2c1 | -0.178 |
| CC(C)c1ccc(C(=O)NCCCN2CCN(CCCNC(=O)c3ccc(C(C)C)cc3)CC2)cc1 | -0.135 |

— PubChem BioAssay AID488969 (Vanderbilt High Throughput Screening Facility, 2010)
